This data set relates to ATP. As to the kind of experiment: switch fluorescence ratio, 500 uM ATP over buffer (Cy3 cluster intensity, sum of 5 cycles each) (fold (ratio)); higher = stronger signal-on switching upon ATP binding; sequences stand for … in TCGTCGGCAGCGTCAGATGTGTATAAGAGACAGTTTTTTTTTTTTTTTTTTTTTTTTT…TC. The following applies: aptamer strand: ATP DNA aptamer (quencher-CACCTGGGGGAGTATTGCGGAGGAAGG + anchor), 100 nM annealed; ATP concentration: 500 uM; one replicate. In a few lines: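 Imaging in selection buffer was followed by imaging after 15 min with 500 uM ATP at 22 °C, for Cy3-labelled switching-strand clusters annealed to 100 nM quencher-labelled ATP aptamer on a modified Illumina MiSeq flow-cell. Five of these buffer/ATP cycles ran, separated by NaOH stripping and re-annealing. The fluorescence ratio per cluster is summed target-cycle over summed buffer-cycle Cy3 intensity, averaged per switch-domain sequence; clusters outside 100-1000 RFU were removed.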

Sequences with one replicate were seen in a single cluster, so their values are uncertain.
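Further: ATP exposure 15 min at 22 °C before imaging.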

For the sequence GGTGACGCGC, the switch fluorescence ratio was 1.1.

Take ACCCTAGTTC: the switch fluorescence ratio turned out to be 1.05.

With ATCGTAGGG, the switch fluorescence ratio is 1.01.

For the sequence TAAAGATCAC, the switch fluorescence ratio is 1.01.

As for CTTGCCAGAT, the switch fluorescence ratio came out at 1.13.

Turning to TCTGGTCTGG, the switch fluorescence ratio is 0.977.

In the case of ATAGATGTG, the switch fluorescence ratio stood at 0.961.

In the case of TTGCACGACC, the switch fluorescence ratio worked out at 1.24.

As to TGTTAGACGA, the switch fluorescence ratio came to 1.01.

For CAGGTTGATA, the switch fluorescence ratio came out at 0.998.

Turning to AGCAAGGATC, the switch fluorescence ratio is 1.17.

On to CTTTAACAGG, for which the switch fluorescence ratio is 1.03.

GTAAACCCG: the switch fluorescence ratio was found to be 1.15.

As for TCATAGGTA, the switch fluorescence ratio came to 1.05.

TATGTCAGTG: the switch fluorescence ratio came out at 1.02.

For the sequence CGCCAATGTA, the switch fluorescence ratio is 0.995.

Take GGTAGATTTA: the switch fluorescence ratio was found to be 0.978.

For AATTGTGGC, the switch fluorescence ratio stood at 0.987.

In the case of AGCACCAAGG, the switch fluorescence ratio is 1.14.

TCCTGTGG: the switch fluorescence ratio was 1.02.

Consider TTGCGTCCC, for which the switch fluorescence ratio worked out at 1.03.

Regarding TGGTCCTCGT, the switch fluorescence ratio is 1.02.

TGGATCAATC: the switch fluorescence ratio amounted to 1.01.

For TCCTTGCAGC, the switch fluorescence ratio was determined as 3.77.

For the sequence AGATTGAGTA, the switch fluorescence ratio worked out at 0.984.

For the sequence CGTGGCCAAT, the switch fluorescence ratio stood at 0.992.

Turning to TCGTGGGGCA, the switch fluorescence ratio worked out at 0.958.

In the case of TTCTGGCACC, the switch fluorescence ratio worked out at 0.969.

For CGACGGCGCC, the switch fluorescence ratio stood at 1.03.

TTCGACGATG: the switch fluorescence ratio stood at 0.97.

In the case of GCTGCAGACA, the switch fluorescence ratio is 1.02.

On to TAATCTTGAA, for which the switch fluorescence ratio worked out at 0.985.

Consider GATGACTAAG, for which the switch fluorescence ratio was found to be 1.

With ATCTAGAACG, the switch fluorescence ratio was found to be 0.995.

In the case of GTGTGAATTT, the switch fluorescence ratio came out at 1.02.

Regarding CATTCATGGG, the switch fluorescence ratio is 1.01.

CCTTTGTTGT: the switch fluorescence ratio amounted to 1.04.

For the sequence GGTCCCATCC, the switch fluorescence ratio came to 1.06.

Take GATATGCCTC: the switch fluorescence ratio was found to be 1.03.

Consider GCGGGATGCT, for which the switch fluorescence ratio was 1.01.

For the sequence CGAGCGGATG, the switch fluorescence ratio was found to be 0.988.

With CGCGCGTAGA, the switch fluorescence ratio was determined as 1.01.

On to ATGTCAAAAC, for which the switch fluorescence ratio is 1.09.

Regarding TGTGAAGTAC, the switch fluorescence ratio is 1.31.

With TCGCAGAGAA, the switch fluorescence ratio turned out to be 1.03.

With TCGATTTAGC, the switch fluorescence ratio turned out to be 0.967.

On to GACGAGCAGC, for which the switch fluorescence ratio amounted to 1.29.

On to CTAAAGGCTT, for which the switch fluorescence ratio stood at 0.962.

On to AAATTAATCG, for which the switch fluorescence ratio is 1.

As for GAAGCCGGTT, the switch fluorescence ratio is 1.

With CCGAGTGCCA, the switch fluorescence ratio amounted to 1.87.

Consider GGTGGTTAG, for which the switch fluorescence ratio turned out to be 0.98.

For TGCATCGTTG, the switch fluorescence ratio was 0.972.

Consider ATAGCGCCC, for which the switch fluorescence ratio is 1.04.

As to GATTTCCGAA, the switch fluorescence ratio stood at 0.96.

For ATATGCGTTG, the switch fluorescence ratio came to 0.987.

Regarding GGCAACGATG, the switch fluorescence ratio is 1.02.

With GTTCGGGTGT, the switch fluorescence ratio amounted to 1.06.

CTACGAGGCT: the switch fluorescence ratio stood at 1.11.

Take TCTGGACTAC: the switch fluorescence ratio amounted to 1.58.

As for GGGGATAGCC, the switch fluorescence ratio amounted to 1.

TTTGTGTTGC: the switch fluorescence ratio was 0.957.

CTTGGCCGGT: the switch fluorescence ratio turned out to be 0.975.

As to ATACTGGAT, the switch fluorescence ratio was 1.01.

For CTCCTTTGAG, the switch fluorescence ratio was 0.99.

On to ATTTCTGACA, for which the switch fluorescence ratio is 1.

For GTCCCGTATA, the switch fluorescence ratio turned out to be 1.04.

CCATTATGGC: the switch fluorescence ratio turned out to be 0.955.

Regarding ACTCCTTGAA, the switch fluorescence ratio was determined as 1.08.

On to ATTTCGTACG, for which the switch fluorescence ratio was 1.

Regarding AGCGTAACAG, the switch fluorescence ratio stood at 0.957.

With CGTACTGGGA, the switch fluorescence ratio came out at 1.01.

Take CGCCCTAGAT: the switch fluorescence ratio is 1.05.

As for ATGTGGATAA, the switch fluorescence ratio was 0.954.

Turning to TAGAGATCAA, the switch fluorescence ratio was 0.959.

On to ACAGAGCTCT, for which the switch fluorescence ratio was 0.974.

In the case of CTGGTGCAGG, the switch fluorescence ratio worked out at 1.13.

As for AGTTGCAGTT, the switch fluorescence ratio amounted to 1.05.

AGATCGAGCG: the switch fluorescence ratio is 1.01.

For CGGACTGAAG, the switch fluorescence ratio came out at 0.959.

In the case of CTCGAACTAC, the switch fluorescence ratio amounted to 3.75.

On to GGAAAGCCCG, for which the switch fluorescence ratio worked out at 0.922.

For CTAGTTAACA, the switch fluorescence ratio was 1.01.

ATAGCTAGGG: the switch fluorescence ratio stood at 0.984.

CTCGGCGCCC: the switch fluorescence ratio turned out to be 1.19.

With GATGGATCTA, the switch fluorescence ratio worked out at 0.99.

On to CCCCAATATT, for which the switch fluorescence ratio is 1.43.

Consider ATGGATACGC, for which the switch fluorescence ratio was determined as 1.13.

As for GGCTCCCCTT, the switch fluorescence ratio is 1.28.

Regarding AACCATTTCA, the switch fluorescence ratio was determined as 1.01.

Turning to CGGGTCACAA, the switch fluorescence ratio is 1.01.

CGTGTTGTCG: the switch fluorescence ratio was 1.05.

As to AACCGATGCA, the switch fluorescence ratio was 1.15.

TTTAGCACTC: the switch fluorescence ratio was 1.14.

Take AGGGGGGTCC: the switch fluorescence ratio came to 1.05.

For the sequence AGACGGGACA, the switch fluorescence ratio worked out at 1.1.

For the sequence GGATCTTAG, the switch fluorescence ratio was 1.

Take GTGACTTGCT: the switch fluorescence ratio was found to be 0.975.

In the case of CAAGTATGCT, the switch fluorescence ratio is 0.975.

In the case of CGGAGTTCCC, the switch fluorescence ratio stood at 1.02.

On to AGTTCCTATT, for which the switch fluorescence ratio worked out at 1.03.

Consider CGTTCTTTCA, for which the switch fluorescence ratio was found to be 0.988.

As to AAAGTCAATC, the switch fluorescence ratio turned out to be 1.14.

Take GTCTCGGCAG: the switch fluorescence ratio was 1.03.

As for GCAACAGAGT, the switch fluorescence ratio came out at 1.01.

CGATTTGAGC: the switch fluorescence ratio was 1.

Consider TTATTGAGAT, for which the switch fluorescence ratio came to 1.17.

Take CCCAGAAGCG: the switch fluorescence ratio turned out to be 1.

Consider ACCAGATGAG, for which the switch fluorescence ratio was determined as 1.04.

In the case of CTGATACCAA, the switch fluorescence ratio worked out at 1.08.

With CGGCTGCTTG, the switch fluorescence ratio came to 1.01.

For the sequence TGTGTATTAG, the switch fluorescence ratio turned out to be 0.996.

With ATCAATGGAG, the switch fluorescence ratio amounted to 1.04.

As to GAGGATAGTT, the switch fluorescence ratio amounted to 0.993.

Consider CGCAGCAGG, for which the switch fluorescence ratio is 2.96.

Consider AGAGTGTACA, for which the switch fluorescence ratio came out at 0.994.

With GTTATCCTAT, the switch fluorescence ratio is 0.995.

For CAATTATCAC, the switch fluorescence ratio amounted to 1.03.

AGGGGATGAG: the switch fluorescence ratio turned out to be 0.991.

With TCGGCTATCA, the switch fluorescence ratio came out at 0.962.
